Results from PubChem BioAssay AID1508623 (National Center for Advancing Translational Sciences (NCATS), 2021).
Screen size: about 48,000 compounds; about 450 (0.94%) were called active. About 19% were inconclusive and are not listed. Calls come from the whole dose curve; as a rule, active = well fitted inhibition curve with a large enough effect; inconclusive = small, poorly fitted or top-dose-only effect; inactive = no such curve, though single readings can be large or run the other way. The list shows a part of the results.

Assay: Primary qHTS for Identification of Small Molecule Inhibitors of Huntingtin Promoter Activity; note: nearly all actives have a fitted effect of over 50% in size
Settings: HEK293 HTT promoter firefly luciferase reporter (activity 0% = vehicle and -100% = no light), 24 h; series mostly up to 57.5 µM; activity change, negative = inhibition: at the top concentration
Method in brief: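 HEK293 Fluc reporter, 2,500 cells/well, 24 h pre-culture; cpds up to 57.5 uM final, 24 h 37 degrees C; Dual-Glo, 10 min RT; normalized vehicle = 0%, zero RLU = -100%.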

Activity change, negative = inhibition, inactive:
COc1ccc(Nc2oc(-c3ccc(COc4cccc(C)c4)o3)nc2C#N)cc1 -18.1%
Cn1nnnc1SCCCNCc1ccc(Cl)cc1 30.9%
COc1ccc(CCNC(=O)Cc2c(C)c3cc4c(C(C)(C)C)coc4c(C)c3oc2=O)cc1OC 3.67%
Cc1ccc2c(c1)cc1c(=O)n(Cc3cccc(Cl)c3)nc(C)n12 -8.67%
Cc1cc(C)c2c(c1)NC(=O)C2(O)c1c[nH]c2ccccc12 (configuration not stated) -13.6%
Cc1nc(N2CCOCC2)c2c(C(=O)N3CCN(c4ccccc4F)CC3)c(C)oc2n1 -9.68%
Cc1ccc(CN2COc3ccc4c(C)cc(=O)oc4c3C2)cc1 -5.17%
CC1CCc2onc(C(=O)N3CCN(c4ccccc4)CC3)c2C1 (configuration not stated) 7.59%
O=C(COc1ccccc1F)Nc1ccccc1C(=O)OCc1cc(=O)n2nc(C3CC3)sc2n1 -5.15%
O=C(NCc1ccc(Cl)cc1)c1cc2c(s1)-c1ccccc1SC2 -12.8%
COc1ccc(-c2nc3c(c(SCC(=O)Nc4cccc(O)c4)n2)Cc2c(CO)cnc(C)c2O3)cc1 -5.66%
CCc1ccccc1NC(=O)Cn1c(=O)n(Cc2ccco2)c(=O)c2ccccc21 -14%
CCc1ccc(NC(=O)C2CCN(c3nn4cc(-c5ccc(OC)cc5)nc4s3)CC2)cc1 6.62%
Cc1ccc(N2C(=O)CC(c3ccccc3F)C3=C2COC3=O)cc1Cl (configuration not stated) -3.88%
c1ccc(-c2nc[nH]c2-c2ccccc2)cc1 -9.6%
CCCCCCCC(=O)OCC(O)CO (configuration not stated) -0.424%
Cc1cccc(S(=O)(=O)Nc2cccc(-c3ccc(N4CCCCC4)nn3)c2)c1 0.901%
CCN(CC)C(=O)Cn1c(=O)n(-c2ccc(Cl)c(Cl)c2)c(=O)c2c(C)c(C(=O)N(CC)CC)sc21 0%
CCc1nnc2c(N3CCN(c4cccc(C)c4)C(C)C3)nc3ccccc3n12 (configuration not stated) -27.4%
CC1CCN(c2nc3c(S(=O)(=O)c4ccccc4)nnn3c3ccc(Cl)cc23)CC1 10.2%
COc1ccc(NC(=O)c2ccc3c(c2)N(Cc2cccc(Cl)c2)C(=O)c2ccccc2S3=O)cc1Cl (configuration not stated) -20.5%
Cc1c(C)n(Cc2ccccc2)c2ccc(C(=O)NCc3ccccc3F)cc12 -9.64%
COc1ccccc1NC(=O)NCCCN1CCN(c2ccc(F)cc2)CC1 -3.3%
COc1ccc(C(=O)Nc2cccc(-c3cn4ccsc4n3)c2)cc1OC 39.6%
CCCN1CCN(CCCNC(=O)c2ccc3c(c2)sc2nc(-c4ccc(OC)cc4)cn23)CC1 3.6%
CCS(=O)(=O)c1ccc(OC)c(C(=O)OC)c1 2.95%
CC1=C(C(=O)NCc2ccccc2Cl)C2(CCCCCC2)OC1=O -9.42%
O=C(O)c1ccc2cc(-c3ccc(O)c(C45CC6CC(CC(C6)C4)C5)c3)ccc2c1 -18.1%
Cc1ccc2c(CNCC(C)c3ccccc3)c(C(=O)O)n(Cc3ccccc3C)c2c1 (configuration not stated) 8.62%
Cc1ccccc1Cn1c(CN2CCC(C(=O)NCc3cccnc3)CC2)cc2ccccc21 4.58%
CCOC(=O)C1CCN(C(=O)Cn2nc(C)n3c(cc4sccc43)c2=O)CC1 -5.83%
O=C(NC[C@H](O)CO)c1ccncc1Nc1ccc(I)cc1F -14.8%
Cn1c(SCC(=O)N2CCOCC2)ncc(C(=O)Nc2ccccc2)c1=O -3.45%
COC(=O)c1ccccc1NC(=O)Cn1cnc2sc(C)c(S(=O)(=O)N3CCC(C)CC3)c2c1=O -27.5%
Cc1nc2ccccn2c(=O)c1NC(=O)c1cccc(F)c1 11.7%
COc1ccc(CCNC(=O)c2ccc3c(c2)sc2nc(-c4ccccc4)cn23)cc1OC 23%
Cc1ccccc1N(C)S(=O)(=O)c1nnc(NC(=O)c2ccco2)s1 -6.32%
CCOC(=O)c1cc(-c2ccc(OC)cc2)n(CCC(=O)NCCc2ccccc2)c1C 2.9%
Cc1ccc(NC(=O)C2(C)Cc3ccccc3C(=O)O2)c(C)c1 (configuration not stated) -6.71%
Cc1cc(OCC(=O)NCCc2nc3ccccc3[nH]2)cc(C)c1Cl -8.88%
Cc1cccc(C(=O)N2CCc3cc(CNC(=O)c4cc5ccccc5[nH]4)ccc32)c1 -14.8%
CCn1nc(C)c(CCN(C)C(=O)Nc2cccc(Cl)c2C)c1C -18.8%
Cc1ccc(CNC(=O)C(C)n2c(=O)cc(C(F)(F)F)c3c(C)nn(C)c32)cc1 (configuration not stated) 0%
Cc1ccc(S(=O)(=O)C(CNC(=O)c2c(F)cccc2F)c2ccco2)cc1 (configuration not stated) -13.4%
O=S(=O)(c1ccccc1)c1nc(-c2ccccc2Cl)oc1N1CCCCCC1 -28.1%
CCS(=O)(=O)N1CCc2cc(C(=O)NCc3ccccc3OC)ccc21 -6.17%
CCn1cc(CNC(=O)c2cc(-c3ccc(C)cc3)nc3ccc(Br)cc23)c(C)n1 5.87%
COc1cccc(NC(=O)C2CCC(CNS(=O)(=O)c3ccc4c(c3)CCCC(=O)N4)CC2)c1 (configuration not stated) -3.83%
Cc1ccccc1-c1nc2scc(CCNC(=O)c3ccco3)n2n1 0%
COc1ccc(NC(=O)CN2C(=O)COc3ccc(S(=O)(=O)N4CCOCC4)cc32)cc1 -7.27%
O=C(NCc1ccccc1)C(=O)Nc1c2c(nn1-c1ccc(F)cc1)CSC2 -23.2%
COc1cccc(NC(=O)C2CCN(c3ccc(Sc4ccc(C)cc4)nn3)CC2)c1 -12.6%
Clc1ccccc1OCCSc1nnc(-c2cccs2)o1 -19.5% [at 11.5 µM]
O=C(CSc1nc(=O)n(Cc2ccco2)c2c1CCC2)NCc1ccccc1 -0.0501%
CCc1ccc2oc(-c3ccc(C)c(NC(=O)/C=C/c4ccco4)c3)nc2c1 19.2%
Cc1sc2ncn(CC(=O)N3CCN(c4ccccc4F)CC3)c(=O)c2c1S(=O)(=O)N1CCC(C)CC1 -8.86%
Cc1cccc(OCCSc2nnc(-c3cccs3)o2)c1 -23.1% [at 11.5 µM]
Cc1ccc2nc(/C(C#N)=C/c3ccccc3F)[nH]c2c1 48.1%
O=C(NC1CCCC1)c1ccc2c(=O)n(Cc3ccccc3)c(SCc3ccccc3F)nc2c1 0.406%
COc1ccccc1CNC(=O)C1CCN(c2nc3ccc(C)cc3[nH]2)CC1 3.81%
CCOc1ccc(CCNC(=O)c2cc3c(-c4ccccc4F)nn(C)c3s2)cc1 -24.6%
COc1ccc(-c2cc(-c3ccc(C)cc3)nc3c2COc2ccccc2-3)cc1 -7.21%
CCC(Cn1nnc2ccccc2c1=O)NC(=O)Nc1ccccc1OC (configuration not stated) -12.2%
Cc1ccc(S(=O)(=O)c2nc(-c3ccc(F)cc3)oc2SCC(=O)NC2CCCCC2)cc1 -15.6%
C[C@]12CCC(=O)C=C1CC[C@@H]1[C@H]2[C@@H](O)C[C@@]2(C)[C@H]1CC[C@]2(O)C(=O)CO -17.5%
COc1ccc(CCNC(=O)c2ccc3c(c2)CCN3S(C)(=O)=O)cc1OC -6.55%
COc1ccc(Cn2cc(S(=O)(=O)c3ccc(C)cc3)c(=O)c3cc(F)ccc32)cc1 -19.4%
COc1ccc2c(c1)c(=O)c(C(=O)c1ccccc1)cn2CC(=O)Nc1ccc2c(c1)OCO2 -17.2%
CCOc1ccc(NC(=O)c2oc3ccccc3c2NC(=O)COc2cccc(OC)c2)cc1 -6.28%
NS(=O)(=O)c1ccc(CCNC(=O)C2CCN(c3ncnc4c3nc3n4CCCCC3)CC2)cc1 -1.02%
Cc1ccc(CNC(=O)CCc2cn(C)c3ccccc23)cc1 -6.39%
CCC(CC)C(=O)Nc1nnc(S(=O)(=O)N2CCCCCC2)s1 -14.7%
Cc1cn2c(=O)cc(COC(=O)c3ccc(NC(=O)c4ccc(F)cc4)cc3)nc2s1 -29.3%
CCOC(=O)c1ccc(NC(=O)c2cnn3c(=O)c4c(n(CC)c23)CCN(Cc2ccc(OC)cc2)C4)cc1 -21.2%
COC(=O)c1ccc(Nc2ncnc3c2cnn3C)cc1 -4.83%
COc1ccc(C2c3[nH]c4ccccc4c3CCN2C(=O)CCC2CCCC2)cc1 (configuration not stated) -27.7%
COc1ccc(CNC(=O)Cc2c(C)c3cc4c(C)coc4cc3oc2=O)cc1OC -1.65%
CC(Sc1nccn1C)C(=O)Nc1ccccc1C#N (configuration not stated) -11.6%
CCN(CC)c1ccc(NC(=O)c2cc(C)nc3c2c(C)nn3-c2ccc(C)cc2)c(C)c1 -5.22%
COc1ccc(-c2nc3scc(CCNS(=O)(=O)c4ccc(Oc5ccccc5)cc4)n3n2)cc1OC -23.9%
CCN(CC)C(=O)c1sc2c(c1C)c(=O)n(-c1ccc(C)c(C)c1)c(=O)n2Cc1cc(=O)n2ccccc2n1 -4.57%
Cc1ccc2sc(N(Cc3cccnc3)C(=O)CCS(=O)(=O)c3ccccc3)nc2c1C -11.1%
O=C(CNC(=O)c1ccccc1)OCc1cc(=O)n2nc(C3CCCCC3)sc2n1 -4.31%
CCN(CC)C(=O)c1sc2c(c1C)c(=O)n(Cc1ccccc1)c(=O)n2Cc1ccccc1C -9.75%
Clc1ccc(CN2CCN(c3ncnc4sc5c(c34)CCCC5)CC2)cc1Cl -16%
COc1ccc(CNC(=O)Cc2c(C(=O)O)c(C)cn2C)cc1 -10.3%
Cc1ncc([N+](=O)[O-])n1CC(C)O (configuration not stated) -4.22%
O=C(NCc1ccc(F)cc1Cl)c1cc(=O)[nH]c2ccc(S(=O)(=O)N3CCCCC3)cc12 -14.1%
COc1ccc(-c2nc3scc(CCNS(=O)(=O)c4ccc5c(c4)OCCO5)n3n2)cc1OC 8.8%
Cc1c(-c2ccccc2)c(=O)oc2ccc(OC(=O)N3CCOCC3)cc12 -37.2%
CCOc1ccc(C(=O)Nc2c(C(=O)Nc3ccccc3OC)oc3ccccc23)cc1OCC -1.36%
Cc1cc(C)cc(OCCSc2nc3ccc(NC(=O)c4cccs4)cc3s2)c1 -18.9%
C/C=C(/C(=C/C)c1ccc(O)cc1)c1ccc(O)cc1 -13.2%
CCOc1ccc(NC(=O)CSC2=Nc3ccccc3C3=NC(CC(=O)NCc4cccs4)C(=O)N23)cc1 (configuration not stated) -19%
COc1cc(-c2cc(OC)c3c(C)oc(C)c3c(=O)c2)ccc1OC(=O)c1ccc(C)cc1 1.7%
O=C(CSc1n[nH]c(-c2ccccc2Cl)n1)NCCCc1ccccc1 0.371%
Cc1ccc(-c2cn3c(n2)sc2cc(C(=O)NCCCN4CCCCCC4)ccc23)cc1 3.13%
